# Experimental data reported in PubChem BioAssay AID1671188 (National Center for Advancing Translational Sciences (NCATS), 2021).
# Where “and” joins values, the source holds several entries; their conditions need not be identical. Identical values can stand only once. The whole screen tested about 100,000 compounds, of which about 250 (0.25%) were called active. The shares of active, inactive and inconclusive entries below differ from those in the screen. Calls follow the shape of the dose curve; as a rule, active = well fitted inhibition curve with a large enough effect; inconclusive = small, poorly fitted or top-dose-only effect; inactive = flat fitted curve, though single readings scatter. Potencies beside an inconclusive call are fits to weak or partial responses and may not hold up.
# Molecular target: Alanine aminotransferase 2 (Homo sapiens) (UniProt Q8TD30)
# Assay: Primary qHTS assay for inhibitors of Glutamate pyruvate transaminase 2 (GPT2); also: nearly all actives have a fitted effect of over 60% in size
# Details: Recombinant GPT2, coupled pyruvate oxidase/HRP Amplex Red fluorescence; series mostly up to 57.7 µM
# Procedure, shortened: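 Fluorescence read-out: pyruvate from GPT2 turnover coupled to pyruvate oxidase, HRP and Amplex Red (0.2mM ThPP, 0.2U/mL PO and HRP, 50uM Amplex final). Substrates 250uM a-KG, 2mM L-alanine; enzyme 10ng/uL; 30 min RT.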
# Potency is read from the fitted curve at half-maximal effect; tags tell the direction and shape of the fitted curve.
# Chain of UniProt Q8TD30 (Q8TD30 whole entry, looked up): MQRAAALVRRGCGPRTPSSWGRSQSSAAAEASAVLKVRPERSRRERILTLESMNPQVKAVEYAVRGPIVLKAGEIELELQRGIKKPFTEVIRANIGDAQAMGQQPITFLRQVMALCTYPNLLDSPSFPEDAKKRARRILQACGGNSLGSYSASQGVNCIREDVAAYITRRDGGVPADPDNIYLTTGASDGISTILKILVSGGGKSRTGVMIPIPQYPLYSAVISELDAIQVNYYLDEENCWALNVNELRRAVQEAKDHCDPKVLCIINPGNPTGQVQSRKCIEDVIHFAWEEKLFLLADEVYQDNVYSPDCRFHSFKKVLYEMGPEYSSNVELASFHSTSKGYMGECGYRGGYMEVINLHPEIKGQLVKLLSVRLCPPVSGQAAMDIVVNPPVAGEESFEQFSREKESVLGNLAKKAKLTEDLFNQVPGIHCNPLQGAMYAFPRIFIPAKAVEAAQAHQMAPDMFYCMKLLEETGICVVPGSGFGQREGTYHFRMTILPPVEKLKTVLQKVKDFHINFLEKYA
row,SMILES,Potency
1,O=C(CN1CC(=O)NC1=O)NCc1ccc2[nH]c3c(c2c1)CCCCCC3,"inconclusive: 39.8 µM [inhibitor, single point]"
2,COCCN1C(=O)c2cccn2CC1CNC(=O)COc1ccccc1 (configuration not stated),"inconclusive: 0.708 µM [inhibitor, full curve, poor fit]"
3,Cc1ccc(-n2nc(C)c([C@H]3C=C[C@@H](O)C3)c2C)cc1Cl,inactive
4,CN(C)c1cccc(-c2ncc3c(n2)OCCN(c2ccccc2)C3=O)c1,inactive
5,COc1ccc(CNC(=O)N2CCOc3ccc(N(C)C)cc3C2)cc1,active: 1.78 µM
6,CC(C)CN1CCCC(COc2ccccc2C(=O)NC2CC2)C1 (configuration not stated),"inconclusive: 8.91 µM [inhibitor, single point]"
7,Cc1oc2ccn(Cc3ccc(F)cc3)c(=O)c2c1C(=O)NC1CCCCCC1,inactive
8,CCCn1ccc2oc(C)c(C(=O)NCc3ccc(CC)cc3)c2c1=O,"inconclusive: 39.8 µM [inhibitor, single point]"
9,Cc1cc(C)n(CC(=O)N2CCOCC(CO)C2)c(=O)n1 (configuration not stated),"inconclusive: 3.98 µM [inhibitor, single point]"
10,COCCCNC(=O)[C@@H]1Cc2cn(Cc3nccn3C)c3cccc(c23)[C@H](CC(C)C)N1,"inconclusive: 56.2 µM [inhibitor, single point]"
11,COc1ccc(C(=O)NC2CCN(c3cc(-c4cccs4)[nH]n3)C2)cn1 (configuration not stated),"inconclusive: 17.8 µM [inhibitor, partial curve]"
12,O=C(NC1CCN(c2cc(N3CCOCC3)cnn2)C1)C1CC1 (configuration not stated),"inconclusive: 35.5 µM [inhibitor, single point]"
13,COc1ccc(-c2cc(N3CCCC(NC(=O)c4cc(F)ccc4F)C3)n[nH]2)cc1 (configuration not stated),"inconclusive: 15.8 µM [inhibitor, partial curve, poor fit]"
14,CC(CO[C@@H]1O[C@H](COC(=O)/C=C/c2ccc(O)c(O)c2)[C@@H](O)[C@H](O)[C@H]1O)C1(O)COC(=O)C1 (some centres not stated),"inconclusive: 20 µM [inhibitor, partial curve, poor fit]"
15,O=C(NCCc1ccc(F)cc1)c1nc2cccnc2n(Cc2ccccc2)c1=O,inactive
16,Cc1c2cc(c(C(=O)O)c1C)OC1OC(C(O)C(O)C1O)C(O)C(O)C1OC(O2)C(O)C(O)C1O (configuration not stated),"inconclusive: 1.41 µM [inhibitor, partial curve, poor fit]"
17,COc1ccc(-c2nc(-c3c(C)noc3C)cc3[nH]c(C)cc23)cn1,"inconclusive: 28.2 µM [inhibitor, partial curve]"
18,O=C(N[C@H](Cc1ccccn1)C1CC(O)C1)c1cccc(-n2cnnc2)c1 (some centres not stated),"inconclusive: 6.31 µM [inhibitor, single point]"
19,CCN(CC)C(C)CN1c2ccccc2Sc2ccccc21 (configuration not stated),"inconclusive: 25.1 µM [inhibitor, single point] and inconclusive: 39.8 µM [inhibitor, single point]"
20,O=C(Cn1c(=O)c2c(n1Cc1ccccc1)CN(Cc1ccccc1)CC2)N1CCC(c2ccccc2)CC1,inactive
21,COCCN1C(=O)[C@@H]2C[C@@H](CN2Cc2ccccc2)Oc2ccccc21,inactive

row,SMILES,Potency
1,COc1cc2c(cc1OC)C(C[C@H]1CN(S(=O)(=O)c3cccs3)CC[C@H]1CC(=O)O)=NCC2,inactive
2,COc1ccccc1CCC(=O)N1CCC2(CC1)N=C(c1ccc(C)cc1)NO2,"inconclusive: 6.31 µM [inhibitor, single point]"
3,Cn1cc(-c2ccc(CO)cc2)c2nc(COc3ccccc3)cn2c1=O,"inconclusive: 56.2 µM [inhibitor, single point]"
4,COc1ccc2nc(CO[C@H]3CN(C4CCN(C(C)=O)CC4)C[C@H]3F)[nH]c2c1,inactive
5,CN1CC(=O)N(C2CCCC2)Cc2c(NCc3ccc(F)cc3)ncnc21,"inconclusive: 39.8 µM [inhibitor, single point]"
6,O=C(CN1C(=O)NC2(CCOCC2)C1=O)Nc1ccc2c(c1)OCCO2,inactive
7,CN(CCc1ccccn1)C(=O)CCC[C@@H]1[C@H]2CCCN3CCC[C@@H](CN1C)[C@@H]23,"inconclusive: 3.98 µM [inhibitor, single point]"
8,CCCn1cc2c(nc(NC(=O)Nc3ccc(OC)cc3)n3nc(-c4ccco4)nc23)n1,"inconclusive: 14.1 µM [inhibitor, partial curve]"
9,Cc1ccc(-c2cc(N3CCCN(C(=O)c4cccs4)CC3)n[nH]2)cc1C,"inconclusive: 39.8 µM [inhibitor, single point]"
10,FC(F)(F)c1cccc(-c2cc(-c3ccncc3)c3cncn3c2)c1,"inconclusive: 39.8 µM [inhibitor, single point]"
11,CC(=O)Nc1ccc(S(=O)(=O)N[C@H]2CO[C@H]3[C@@H]2OC[C@@H]3n2nnnc2Oc2cccc(N3CCOCC3)c2)cc1,"inconclusive: 0.316 µM [inhibitor, full curve, poor fit]"
12,Cc1cccc(CN2CCc3c(sc4ncnc(N(C)C)c34)C2)c1,"inconclusive: 31.6 µM [inhibitor, single point]"
13,O=C(c1ccc2nccnc2c1)N1CCC2(CC1)Nc1ccccc1NC2=O,"inconclusive: 17.8 µM [inhibitor, partial curve]"
14,O=C1CCN(C(=O)C2CCN(C(=O)C3CCOCC3)CC2)CCCCCCN1,inactive
15,COC1CCC(C(=O)N2CCCn3nc(C)c(-c4ccccc4-c4ccccc4)c32)CC1 (configuration not stated),inactive
16,CN(C)[S+](=O)([O-])c1ccc2c(c1)OCCN(Cc1cccnc1)C2,"inconclusive: 7.94 µM [inhibitor, single point]"
17,COc1cc(O)cc(O)c1,"inconclusive: 39.8 µM [inhibitor, single point]"
18,O=C(Nc1cc(-c2ccncc2)nn1-c1ccccc1)C1CC1,inactive
19,Cn1c(=O)c2c(ncn2CC2OCCO2)n(C)c1=O,"inconclusive: 39.8 µM [inhibitor, single point]"
20,CN(C(=O)[C@@H]1C[C@H](c2ccc(F)cc2)N([S+](=O)([O-])C2CC2)C1)c1ccccc1,inactive
21,OCCNc1cc(N2CCCC(CO)(Cc3ccccc3F)C2)ncn1 (configuration not stated),"inconclusive: 10 µM [inhibitor, partial curve]"

row,SMILES,Potency
1,CC1CCC2(C(=O)OC3OC(CO)C(O)C(O)C3O)CCC3(C)C(=CCC4C5(C)CCC(O)C(C)(CO)C5CCC43C)C2C1(C)O (configuration not stated),"inconclusive: 0.891 µM [inhibitor, partial curve, poor fit]"
2,O=C(C1CC(=O)N(C2CCCC2)C1)N1CCN(c2ccc(Cl)cn2)CC1 (configuration not stated),"inconclusive: 4.47 µM [inhibitor, partial curve, poor fit]"
3,COc1ccc(Oc2cc(C)c(-c3csc(NC(=O)c4ccncc4)n3)c(C)c2)cc1,"inconclusive: 3.55 µM [inhibitor, single point]"
4,COc1ccccc1CNC(=O)CCC[C@H]1NC[C@@H]2C[C@H]1CN(Cc1ccccc1)C2,"inconclusive: 10 µM [inhibitor, partial curve, poor fit]"
5,CCCCCCCC(=O)OCC(COC(=O)CCCCCCC)OC(=O)CCCCCCC,"inconclusive: 39.8 µM [inhibitor, single point]"
6,COc1ccc(CNC(=O)Cc2c[nH]c3ncc(-c4ccccc4)cc23)cc1OC,"inconclusive: 56.2 µM [inhibitor, single point]"
7,COc1cccc(CCC(=O)NC2CCN(c3cc(C(F)(F)F)nc(C)n3)CC2)c1,"inconclusive: 39.8 µM [inhibitor, single point]"
8,O=C(c1nc(-c2cccc(C(F)(F)F)c2)c2cnccn12)N1CCOCC1,inactive
9,COc1ccc(C)cc1NC(=O)C1CCN(C(=O)N2CC3CC(C2)[C@H]2CCCC(=O)N2C3)CC1 (some centres not stated),"inconclusive: 35.5 µM [inhibitor, partial curve, poor fit]"
10,Cn1ncc2c(C(=O)N3CCN(c4ncccn4)CC3)cc(-c3ccccc3)nc21,"inconclusive: 35.5 µM [inhibitor, single point]"
11,Cn1ncc2c(C(=O)NC3CC3)cc(-c3ccc(Cl)cc3)nc21,"inconclusive: 6.31 µM [inhibitor, full curve, poor fit]"
12,Cc1nc2cccnc2n1CC1CCCN(S(=O)(=O)c2ccc(C(F)(F)F)cc2)C1 (configuration not stated),inactive
13,O=C(C1CC1)N1CCOc2ccc(CN3CCCC3)cc2C1,"inconclusive: 25.1 µM [inhibitor, single point]"
14,Cn1cc(-c2cnc(Nc3cncnc3)c3c2CCO3)cn1,inactive
15,O=C(Nc1ccccc1)Nc1ccc([C@H]2OCC(=O)N(Cc3ccncc3)[C@@H]2CO)cc1,"inconclusive: 6.31 µM [inhibitor, single point]"
16,O=C(NCC1CCCCC1)c1noc(-c2ccc[nH]c2=O)n1,"inconclusive: 7.08 µM [inhibitor, single point]"
17,CCc1nc2c(c(-c3ccc(Cl)cc3)n1)CCN(Cc1ccc(NC(C)=O)cc1)CC2,inactive
18,C[C@H]1[C@H](C)CC[C@]2(C(=O)O)CC[C@]3(C(=O)O)C(=CCC4[C@@]5(C)CC[C@H](O[C@@H]6O[C@@H](C)[C@H](O)[C@@H](O)[C@H]6O)C(C)(C)C5CC[C@]43C)[C@H]12 (some centres not stated),"inconclusive: 2.24 µM [inhibitor, single point]"
19,COCCOC1CN(C2CCN(C(=O)c3ccc(C#N)cc3)CC2)C12CCCCC2 (configuration not stated),"inconclusive: 39.8 µM [inhibitor, single point]"
20,O=C(NCCN1CCOC1=O)c1cn(CCC2CCCCN2)nn1 (configuration not stated),"inconclusive: 39.8 µM [inhibitor, single point]"
